The other results are listed elsewhere or left out.
T1: UNK ZnF1-6 (called full-length) (human, UniProt Q9C0B0 30-357)
T1 sequence: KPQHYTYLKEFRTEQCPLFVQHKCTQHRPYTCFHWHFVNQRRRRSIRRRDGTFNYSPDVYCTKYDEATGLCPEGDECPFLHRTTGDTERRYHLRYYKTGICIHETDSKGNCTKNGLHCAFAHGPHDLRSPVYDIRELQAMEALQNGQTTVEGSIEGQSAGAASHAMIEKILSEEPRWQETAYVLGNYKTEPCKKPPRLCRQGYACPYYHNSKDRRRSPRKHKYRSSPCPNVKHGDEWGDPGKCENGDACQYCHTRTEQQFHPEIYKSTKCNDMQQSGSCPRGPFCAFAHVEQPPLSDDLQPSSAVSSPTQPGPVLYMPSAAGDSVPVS

B1: ENSG00000104643:stop:overlap|stop_codon|ENSG00000104643|stop_codon|NA|stop_codon (ssRNA)
RNA: GGGAGUUCUACAGUCCGACGAUCAUAUUCCUGGAAUGGAGGAAUGCUUGAAUAUAGCCAGUUCCAUUGAGAAUCCCUCCUGCUAGCCCUCCACCCUUCCCCGAAUACAUCUGGACACGAUUUGCAUUGUCUACUCUGGACUCCCAACAGAGGAUUGAGCAUCA
B2: chr14:106324253:106324560:-|CDS|ENSG00000211952|control|control|control (ssRNA)
RNA: GGGAGUUCUACAGUCCGACGAUCCUAUUAUAGUGGGAGCACCUACUACAACCCGUCCCUCAAGAGUCGAGUCACCAUGUCAGUAGACACGUCCAAGAACCAGUUCUCCCUGAAGCUGAGCUCUGUGACCGCCGUGGACACGGCCAACAGAGGAUUGAGCAUCA
B3: chr16:70160055:70160156:+|3pUTR|ENSG00000090857|msi1|total|mutant (ssRNA)
RNA: GGGAGUUCUACAGUCCGACGAUCUUGUGCUCACCACGAAGGAUGGUCUCUGCCUUCUCUUGUCGGUGUAUGCCAUCUGAACCCCGGAACACAAAGUAUAUUGGCCUCAAACGGAGACCCAGGGUUGCCAGUUUUCCGUGGGCCCAACAGAGGAUUGAGCAUCA
B4: chr11:107429260:107429366:-|CDS|ENSG00000152404|unk|FALSE|unique (ssRNA)
RNA: GGGAGUUCUACAGUCCGACGAUCGAGGAAACCCACAUAUUCAGAUAAAGCACAAAAUUGUCAAGAAAGUAGAGAAUCAGACUUAGUAAAAUAUGGUAACAGUUCAAGGGAUAGAUAUGCUACAACAGAUACUGCAAAAAAUAGCAACAGAGGAUUGAGCAUCA
B5: chr3:45095346:45095568:-|CDS|ENSG00000163814|control|control|control (ssRNA)
RNA: GGGAGUUCUACAGUCCGACGAUCAAACAGAGCCGCAAGUUUGUCCCUGGCUGUUUCGUGUGUCUAGAAUCUCGGACCUGCAGUAGCAACCUCACCCUGACAUCUGGCUCCAAACACAAAAUCUCCUUCCUUUGUGAUGAUCUGCAACAGAGGAUUGAGCAUCA
B6: chr10:87814449:87814585:-|CDS|ENSG00000138138|unk|FALSE|bound_elsewhere (ssRNA)
RNA: GGGAGUUCUACAGUCCGACGAUCUUUAAUUUUCCGUUUGACAAUAUUUGGUGCAGUGACAUACUUUACUAUCAAAUGGAUGGUAGAUGCAAUUGAUCCAACCAGAAAGCAAAAAGUAGAAGCUCAGAAACAGGUAUGAUUGAACAACAGAGGAUUGAGCAUCA
B7: chr17:58495858:58495960:-|CDS|ENSG00000108389|unk|FALSE|unique (ssRNA)
RNA: GGGAGUUCUACAGUCCGACGAUCAGAAGAGACUAAGGGACCAGCUCCAGACCCUUCUGCCCAGGAUGAGCUGGGUAGGACUUUAGAUGGCAUAGGGGAGCCACCUGAACAUUGUCCUGAAACAGAAGCUGUCAGUGCACUCUCCAACAGAGGAUUGAGCAUCA
B8: chr6:53267885:53267986:-|3pUTR|ENSG00000012660|msi1_unk|FALSE|overlapping (ssRNA)
RNA: GGGAGUUCUACAGUCCGACGAUCUUUAAUGUAAAUCUAAUAGUACUUGUAAUUUCUUUCUGCUUAGAAUCUAAAGAUGUGUUUAGAACCUCUUGUUUAAAAAUAAUAGACUGCUUAUCAUAAAAUCACAUCUCACACAUUUGACAACAGAGGAUUGAGCAUCA
B9: ENSG00000066933:stop:overlap|stop_codon|ENSG00000066933|stop_codon|NA|stop_codon (ssRNA)
RNA: GGGAGUUCUACAGUCCGACGAUCAUAGCUCAGAGAAUUUGAAUAUGGAGUCUGAAUAUGCUAUCUCUGAGAAAUCAGAAGCUUAGCCCUUAGCUCCCUGAAGACAGCUGGCAAGUCUGAACCUUCCAGCAAGUUGCGAAAGCACAACAGAGGAUUGAGCAUCA
B10: chr9:136477283:136477384:-|CDS|ENSG00000148396|msi1|total|mutant (ssRNA)
RNA: GGGAGUUCUACAGUCCGACGAUCGCCCCCGCAGGGUUUUCUCAGCACCCCGGUUUGCUUGUUCCUCACACACAUGCCAGAGACCGCUCUCAGGGACCCUGUGAGCCCCUGCCUGGACCUCUGACACAGCCCAGAGCACAUGCCCAACAGAGGAUUGAGCAUCA
B11: chr21:39342314:39343159:-|three_prime_utr|ENSG00000205581|control|control|control (ssRNA)
RNA: GGGAGUUCUACAGUCCGACGAUCCCCUUCUUGUACAAUCCAGAGGAAUAUUUUUAUCAACUAUUUUGUAAAUGCAAGUUUUUUAGUAGCUCUAGAAACAUUUUUAAGAAGGAGGGAAUCCCACCUCAUCCCAUUUUUUAAGUGCAACAGAGGAUUGAGCAUCA
B12: chr3:138622260:138622368:+|CDS|ENSG00000158234|unk|total|mutant (ssRNA)
RNA: GGGAGUUCUACAGUCCGACGAUCAUCCGUGGGCAAAGAAACAUUCUAUGUUGGAGCUGCAAAGACAAAAGCGACCAUAAAUACCGACGCUAUCAGUGGUUUUGCUUAUGAAUAUACUCUGGAAAUUAAUGGGAAAAGUCUCAACAACAGAGGAUUGAGCAUCA
B13: chr1:67413009:67413110:-|3pUTR|ENSG00000142864|unk|FALSE|unique (ssRNA)
RNA: GGGAGUUCUACAGUCCGACGAUCCUGAAUUUUAUCUGUUUUAAAAAUGAACUUCUCCCGCUACACAGAAGUAACAAAUAUGGUAGUCAGUUUUGUAUUUAGAAAUGUAUUGGUAGCAGGGAUGUUUUCAUAAUUUUCAGAGAUCAACAGAGGAUUGAGCAUCA
B14: chr4:75577918:75578020:-|3pUTR|ENSG00000138769|unk|FALSE|unique (ssRNA)
RNA: GGGAGUUCUACAGUCCGACGAUCGGUUGUUUAGGGAACCAGAAUUUGUGAGUUUUUUUUUUUUUUUUGCCUUAACUAAUUAAUAGUGUGUUGCUUUUUUUCCAAAGCCAUUGACUAGAACUUAGCUGAAGAAUUUAACUAGAACAACAGAGGAUUGAGCAUCA
B15: ENSG00000006432:stop:overlap|stop_codon|ENSG00000006432|stop_codon|NA|stop_codon (ssRNA)
RNA: GGGAGUUCUACAGUCCGACGAUCGAGCGGAACUGAACACACACAGGCCUGCCCCUUAUGAGAUCCAGCAGGAGUUCUGGUCUUAGCACGAAAAGGAUUGGGGCGGGCAAGGGGGACAGCCAGCGGAGAUGAGGGGAGCUGGCGCAACAGAGGAUUGAGCAUCA
B16: chr17:75827259:75827360:-|3pUTR|ENSG00000092929|unk|FALSE|unique (ssRNA)
RNA: GGGAGUUCUACAGUCCGACGAUCGGACAGUUUGGCUGCUGUGUCUGCUGCGCACGCCCCCUCCCCGGACAGCACCUGCCACCUAGAAACUUUCUUAGCAAAAAAAUUAAUAAAAACAAAUCCAUUGUCCUCUUAAAAUAUGCCCAACAGAGGAUUGAGCAUCA
B17: chr19:4409044:4409156:+|CDS|ENSG00000167670|unk|FALSE|unique (ssRNA)
RNA: GGGAGUUCUACAGUCCGACGAUCCUGUCAUGUGGGUUCUGACAUAGACUUUAGACCGAAACUUGUCAACGGGAAGGGUCCCUUAGAUAACUUUUUAAGAAAUAGAAUCGAAACCAGUAUUGGCCAGAGCACAGUCAUCAUUGACAACAGAGGAUUGAGCAUCA
B18: chr10:74120044:74120145:+|3pUTR|ENSG00000035403|msi1|total|mutant (ssRNA)
RNA: GGGAGUUCUACAGUCCGACGAUCAAAAAAAAUCCCUGAAUGAUGAUCCGAGACAUCACCGCUAAAAAACUACAUUUAUAAGCCCGGAUUUGUUAUAUGCAAAUAUUUUCUGCCUCUUCUUUUGUUCUGUUUAAAACAAUAAAACAACAGAGGAUUGAGCAUCA
B19: chr3:125228010:125228111:-|3pUTR|ENSG00000163848|msi1|FALSE|unique (ssRNA)
RNA: GGGAGUUCUACAGUCCGACGAUCAGUUCUCUUCAUAUUUCAUAACUACAUUUCAAUAAUUCUAAACUUUCUACAUUGAUUUUUAGAUACUUAUUUUUCAAGCUUGGUUUCUCAGCUGAUCAGAUGAAUUUAUUCAACUUCAAUCAACAGAGGAUUGAGCAUCA
B20: ENSG00000168795:stop:overlap|stop_codon|ENSG00000168795|stop_codon|NA|stop_codon (ssRNA)
RNA: GGGAGUUCUACAGUCCGACGAUCAGCACUCAAAGACUACCUGCCUGCGCUGGCAGAGCAGCAAUCUUCCCAGCACUUUGCUCUAGCUGUUUGUCCUUACAAGACAACGCUGAGGCCAGUUGUCAGACUGAAUUUCUUUUGGUACAACAGAGGAUUGAGCAUCA
B21: chr1:229660051:229660152:+|3pUTR|ENSG00000135763|msi1|total|mutant (ssRNA)
RNA: GGGAGUUCUACAGUCCGACGAUCCUCAUUCACCGUCUCAGUUACCCAGAUAACCUCGGUUGUCACCUUGGAGUAUCUUGUUGCCGUCCCUUUACUAUGUGUAUGUAUACCGAUGUGCAUAUAAAUAUAUACCGCCGCUAAAUUCAACAGAGGAUUGAGCAUCA
B22: chr1:64777895:64778004:+|CDS|ENSG00000162437|unk|total|mutant (ssRNA)
RNA: GGGAGUUCUACAGUCCGACGAUCGGAUUUGUGGAAUACAUGAAAAAGGACUUUGCUGCAAAGGCCCGACUGGAGCUAUUGGGCCGACAGUUGGGAGCAUCAGCACUCUUUGCACAAUGGAUGGAUGUUAAUCUAUUGGCUUCACAACAGAGGAUUGAGCAUCA

What follows are binders tested against T1, UNK ZnF1-6 (called full-length) (assay: nsRBNS (natural sequence RNA bind-n-seq); RBNS binding buffer (assumed for nsRBNS): 25 mM Tris pH 7.5, 150 mM KCl, 3 mM MgCl2, 0.01% Triton X-100, 500 ug/ml BSA, 20 U/ml SUPERase-In, 4 C; UNK is unkempt and MSI1 is Musashi-1; names of the RNAs are library labels; protein concentration not given here; high values mean tight binding).

| Binder | binding signal [enrichment R] |
| --- | --- |
| B1 | 2.83 |
| B2 | 0.66 |
| B3 | 0.469 |
| B4 | 1.66 |
| B5 | 0.73 |
| B6 | 0.395 |
| B7 | 0.865 |
| B8 | 10.2 |
| B9 | 15.4 |
| B10 | 0.864 |
| B11 | 1.97 |
| B12 | 0.396 |
| B13 | 3.09 |
| B14 | 5.54 |
| B15 | 11.7 |
| B16 | 25.7 |
| B17 | 7.95 |
| B18 | 0.68 |
| B19 | 3.33 |
| B20 | 7.1 |
| B21 | 0.318 |
| B22 | 0.468 |
